The text below walks through data of PMC7819943, “Rice protein-binding microarrays: a tool to detect cis-acting elements near promoter regions in rice”.

Some of the results follow.

This assay addresses T1, OsWOX13 (Oryza sativa, UniProt Q5QMM3 1-267).
T1 sequence: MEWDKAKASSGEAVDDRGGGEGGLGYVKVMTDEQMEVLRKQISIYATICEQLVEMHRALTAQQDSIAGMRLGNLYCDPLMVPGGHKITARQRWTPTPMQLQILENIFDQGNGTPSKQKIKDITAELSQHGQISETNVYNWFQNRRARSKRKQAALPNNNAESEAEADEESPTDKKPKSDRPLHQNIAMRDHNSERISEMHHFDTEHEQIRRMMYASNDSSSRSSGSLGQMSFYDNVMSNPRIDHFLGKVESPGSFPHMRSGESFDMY
In words: protein-binding microarray (RPBM); PBS, 2% BSA, 51.3 ng/ul salmon testes DNA, 50 uM zinc acetate, 200 nM TF, 25 C, 1 h; high values mean tight binding. Conditions: protein: recombinant; tags: N-terminal polyhistidine and DsRed monomer fusion (pET32a); label: CyDye5-dUTP incorporated in the synthesized complementary strand; 3' TTTTT single-stranded linker to array surface; dsDNA, one strand shown. In outline: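 A custom Agilent array was converted to double-stranded form by primer extension with Cy5-dUTP and blocked with 2% BSA. Protein at 200 nM in PBS with 2% BSA, salmon testes DNA and 50 µM zinc acetate was applied for 1 h at 25 °C, followed by washing. The proteins were polyhistidine–DsRed N-terminal fusions of transcription factors, expressed in E. coli BL21-CodonPlus and Ni–NTA-purified. The binding signal is per-feature fluorescence intensity (arbitrary units) from an Axon 4000B scanner.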
With “AAACAAACTAATTGGTTGTCCCATCTGGAAAGGACATCTTCGGAGTCACCTAGTGCAG”, the binding signal was 15400 fluorescence intensity (a.u.).

Turning to “ATATAAATTAAAATATTTTACAGGAATTTCATAGAAACCCCGGAGTCACCTAGTGCAG”, the binding signal was 7860 fluorescence intensity (a.u.).

On to “CTAAACAATCAACAATGGCCATTTCTTTTAATCTTCTCTGCGGAGTCACCTAGTGCAG”, for which the binding signal is 13300 fluorescence intensity (a.u.).

As for “CATCATGATTTGATGATGGATTAATTATGCTTAATAAATTCGGAGTCACCTAGTGCAG”, the binding signal is 55300 fluorescence intensity (a.u.).

Take “TAATGATGGTAGTATGATTATGTCAAACATGATCTCAACTCGGAGTCACCTAGTGCAG”: the binding signal was 6350 fluorescence intensity (a.u.).

Regarding “TGTGGTTGTGGGAGGTGATTCAATCAGGGGCAAAAGGTGACGGAGTCACCTAGTGCAG”, the binding signal is 4860 fluorescence intensity (a.u.).

With “TGTATTAATTTGATGGAGGTATATTCACCATCTCAAGTGACGGAGTCACCTAGTGCAG”, the binding signal is 17400 fluorescence intensity (a.u.).

“GTATGAATGAGCTATTAGATTGGCTATATATGAATTGGAGCGGAGTCACCTAGTGCAG”: the binding signal was 24700 fluorescence intensity (a.u.).

On to “TCTGTTCCATATTAATTGACGTTTTGAATAAAGTTGAGATCGGAGTCACCTAGTGCAG”, for which the binding signal was 22000 fluorescence intensity (a.u.).

Turning to “GGATTAATTAGTCTCAAAAGATTCGTCTCGCGGTTTCCAGCGGAGTCACCTAGTGCAG”, the binding signal was 33000 fluorescence intensity (a.u.).

As to “TCCAAATTATCCTGACAGATCTTAAAACACAGCCCATCACCGGAGTCACCTAGTGCAG”, the binding signal was 17900 fluorescence intensity (a.u.).

On to “TCATTTATTACATTAATCACGTGCTCAAGTTACCCCTAAGCGGAGTCACCTAGTGCAG”, for which the binding signal was 6120 fluorescence intensity (a.u.).

As to “CGCATGACAATCACGCTACCCTCCCCGTCCCGAATACCGACGGAGTCACCTAGTGCAG”, the binding signal is 3750 fluorescence intensity (a.u.).

As to “ATTCCAATTTAATGGGATTTATATAGGTTGTTAGGACTTTCGGAGTCACCTAGTGCAG”, the binding signal was 6330 fluorescence intensity (a.u.).

“ATTTTCCATTGTCAATTGTACCAATTAAGATGCACAGACCCGGAGTCACCTAGTGCAG”: the binding signal was 6670 fluorescence intensity (a.u.).

“TCTCTTCTCTACCAATCATATTTATTCTTCATCTATTATGCGGAGTCACCTAGTGCAG”: the binding signal was 3550 fluorescence intensity (a.u.).

Consider “ATAAACACGGACCAAAATTTAAATTAAGGGAATTGACAGGCGGAGTCACCTAGTGCAG”, for which the binding signal was 19800 fluorescence intensity (a.u.).

On to “CATGGATAGGATAATCGTAACAATTATCTAGACAGTGATGCGGAGTCACCTAGTGCAG”, for which the binding signal was 4950 fluorescence intensity (a.u.).

In the case of “ACATTTGTGATTTTCCTAGGTAATGGTGAGATTTTATAGGCGGAGTCACCTAGTGCAG”, the binding signal is 3220 fluorescence intensity (a.u.).

As to “CAAAATAAACAATCTAGGGCAATTTTACTATCCTTAAGAACGGAGTCACCTAGTGCAG”, the binding signal was 3480 fluorescence intensity (a.u.).

Take “AAAACAAACCCAGCCTAATTGGAAATGTGACATTAACTAGCGGAGTCACCTAGTGCAG”: the binding signal was 8030 fluorescence intensity (a.u.).

For “ACATGACTAATCTTATTGACTTAAGAGCTGATTAGGATACCGGAGTCACCTAGTGCAG”, the binding signal is 20200 fluorescence intensity (a.u.).

For the sequence “AATTAATTGAGCCAGAGTGCCAGAGCAGAAGGAGACGGTGCGGAGTCACCTAGTGCAG”, the binding signal is 26200 fluorescence intensity (a.u.).
